Inconclusive results, whose numbers are uncertain, are shown with a selection of clear calls. Potencies of inconclusive entries are doubtful fits and often do not repeat. Calls of active or inactive are those of the source. Unless noted, calls come from the whole dose curve; as a rule, active = well fitted activation curve with a large enough effect in the main read-out, with a control signal flat (not every such curve was filed as active); inconclusive = small, poorly fitted or top-dose-only effect, or effect the other way, or a change in a side signal; inactive = flat fitted curve, though single readings scatter.
Target: 3',5'-cyclic-AMP phosphodiesterase 4B (Homo sapiens) (UniProt Q07343)
Sequence of UniProt Q07343 (Q07343 whole entry, looked up): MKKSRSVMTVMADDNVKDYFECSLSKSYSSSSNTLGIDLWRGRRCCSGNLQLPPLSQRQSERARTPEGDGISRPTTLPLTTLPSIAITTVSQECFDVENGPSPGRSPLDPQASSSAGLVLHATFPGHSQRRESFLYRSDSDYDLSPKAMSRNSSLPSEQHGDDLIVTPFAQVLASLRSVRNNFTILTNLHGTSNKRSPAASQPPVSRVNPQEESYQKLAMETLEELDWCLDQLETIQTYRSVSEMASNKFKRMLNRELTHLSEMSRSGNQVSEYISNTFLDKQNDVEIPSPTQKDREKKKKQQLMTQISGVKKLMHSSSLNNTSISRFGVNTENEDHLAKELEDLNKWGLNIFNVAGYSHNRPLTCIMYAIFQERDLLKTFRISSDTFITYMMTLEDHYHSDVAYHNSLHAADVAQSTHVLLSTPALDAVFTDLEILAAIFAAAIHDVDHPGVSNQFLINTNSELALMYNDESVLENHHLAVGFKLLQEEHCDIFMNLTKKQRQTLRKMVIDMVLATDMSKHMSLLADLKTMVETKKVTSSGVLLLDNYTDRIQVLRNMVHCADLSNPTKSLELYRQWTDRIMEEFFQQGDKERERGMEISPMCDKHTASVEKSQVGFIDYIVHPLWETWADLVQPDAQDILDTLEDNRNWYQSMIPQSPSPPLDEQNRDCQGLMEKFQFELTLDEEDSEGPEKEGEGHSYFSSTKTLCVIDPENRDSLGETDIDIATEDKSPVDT
Assay: qHTS Assay for Inhibitors of PDE-IV (AID 607); for activation (PDE inhibition): % of control where 0% means no effect
Settings: HEK293 ACTOne CNG channel cells, membrane potential fluorescence; activation (PDE inhibition): at 22.9 µM (top of the series)
In short: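 Live HEK293 cells with a modified cyclic nucleotide-gated (CNG) channel report intracellular cAMP via membrane-potential dye fluorescence (ex 535/em 590 nm). Endogenous PDE-IV was targeted. Compounds were tested at up to 22.9 uM final; RO 20-1724 100 uM served as control.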
Potency is the fitted concentration of half-maximal effect; tags give direction and shape of the fitted curve.

Row | SMILES | Potency | activation (PDE inhibition)
1 | C[C@@H]1O[C@H](O[C@H]2C[C@@H](O)[C@]3(CO)[C@H]4[C@H](O)C[C@]5(C)[C@@H](C6=CC(=O)OC6)CC[C@@]5(O)[C@H]4CC[C@]3(O)C2)[C@@H](O)[C@H](O)[C@H]1O | inconclusive: 1.51 µM [rising, partial curve] | –
2 | O=C1Nc2cc(Cl)c(Cl)cc2N2CCNC[C@H]12 | inconclusive: 4.77 µM [activator, partial curve] | –
3 | CCCCCC[C@H]1C(=O)O[C@@H](C)[C@H](NC(=O)c2cccc(NC=O)c2O)C(=O)O[C@@H](C)[C@@H]1OC(=O)CC(C)C | inconclusive: 19 µM [activator, single point] | –
4 | CC(=O)[C@@H]1CC[C@H]2[C@H]3CC[C@H]4C[C@@H](O)CC[C@]4(C)[C@@H]3C(=O)C[C@@]12C | – | inactive: -0.159%
5 | N#Cc1ccc(CN2CC[C@@]3(CCCN(C(=O)Oc4ccccc4)C3)C2)cc1 | – | inactive: 10.2%
6 | CC1N(P(=O)(c2ccccc2)c2ccccc2)CC(O)(c2ccccc2)CC12CC2 (centres undefined) | inconclusive: 7.94 µM [rising, partial curve] | –
7 | COc1cc2c(cc1OC)[C@]13CCN4CC5=CCO[C@@H]6CC(=O)N2[C@@H]1[C@H]6[C@@H]5C[C@H]43 | inconclusive: 19 µM [inhibitor, single point] | –
8 | CCC/C=C(\CCC)C(NP(=O)(c1ccccc1)c1ccccc1)c1ccccc1 (centres undefined) | inconclusive: 12.6 µM [activator, single point] | –
9 | NCCCP(=O)(O)CC1CCCCC1 | – | inactive: 14.1%
10 | CC(C)(C)c1cc(C#N)cc(Br)c1OP(=O)(Oc1c(Br)cc(C#N)cc1C(C)(C)C)c1ccccc1 | – | inactive: 17.8%
11 | CC[C@@H]1CN2CC[C@@H]1C[C@H]2[C@@H](O)c1ccnc2ccc(OC)cc12 | inconclusive: 6 µM [activator, partial curve] | –
12 | C[C@H]1CC[C@@H]2[C@@H](C)C(=O)O[C@H]3O[C@@]4(C)CC[C@H]1[C@@]32OO4 | – | inactive: -4.85%
13 | CC(C)(O)[C@H]1[C@H]2OC(=O)[C@@H]1[C@]1(O)C[C@H]3O[C@]34C(=O)O[C@H]2[C@]14C | – | inactive: -0.0373%

Target: Vitamin D3 receptor (Homo sapiens) (UniProt P11473)
Sequence of UniProt P11473 (P11473 whole entry, looked up): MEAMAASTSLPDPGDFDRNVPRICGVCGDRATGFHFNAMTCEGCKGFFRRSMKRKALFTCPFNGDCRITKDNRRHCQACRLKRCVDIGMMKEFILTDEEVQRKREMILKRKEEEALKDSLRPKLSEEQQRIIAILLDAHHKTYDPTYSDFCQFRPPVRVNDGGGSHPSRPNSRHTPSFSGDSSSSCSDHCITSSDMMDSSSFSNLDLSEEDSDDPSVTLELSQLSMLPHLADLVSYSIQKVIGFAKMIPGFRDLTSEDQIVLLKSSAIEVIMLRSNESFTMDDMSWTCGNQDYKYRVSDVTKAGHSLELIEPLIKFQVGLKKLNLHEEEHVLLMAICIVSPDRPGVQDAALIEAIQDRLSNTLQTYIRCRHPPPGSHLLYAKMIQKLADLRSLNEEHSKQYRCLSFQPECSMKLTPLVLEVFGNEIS
Assay: qHTS for Inhibitors of the vitamin D receptor (VDR): Hit Validation using a Fluorescein Assay (AID 602200; active = well fitted inhibition curve with a large enough effect; inconclusive = small, poorly fitted or top-dose-only effect, or another doubt; inactive = no such curve, though single readings can be large or run the other way)
Settings: VDR-coactivator binding, fluorescein fluorescence polarization; series mostly up to 57.1 µM; activity change, negative = inhibition: at the top concentration
In short: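 Fluorescence polarization: 1.5 uM VDR-LBD, 5 uM LG19078 and 5 nM fluorescein-labeled SRC2-3 peptide (final) with compounds, 2 h at room temperature. Read at Ex 495/Em 520 nm; peptide-only wells served as control.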

Row | SMILES | Potency
14 | CCOc1ccc(N2C(=O)NC(=O)/C(=C\c3ccccc3[N+](=O)[O-])C2=O)cc1 | inconclusive: 2.82 µM [inhibitor, full curve, poor fit]
15 | COC(=O)C1=Nc2ccccc2/C1=C\c1c(O)n(-c2ccc(Br)cc2)c(=O)[nH]c1=O | inconclusive: 10 µM [inhibitor, partial curve]
16 | C/C(=C\c1ccc(N(C)C)cc1)[N+](=O)[O-] | inconclusive: 5.62 µM [inhibitor, single point]
17 | O=C1NC(=O)N(CCC2=CCCCC2)C(=O)/C1=C\c1cccs1 | inconclusive: 2.82 µM [inhibitor, full curve, poor fit]
18 | COC(=O)COc1ccc(/C=C2\C(=O)NC(=S)N(c3ccc(C)cc3)C2=O)cc1OC | inconclusive: 3.98 µM [inhibitor, partial curve, poor fit]
19 | O=C(O)CCn1cc(C=C2C(=O)NC(=S)NC2=O)c(-c2cccc(Br)c2)n1 | inconclusive: 3.16 µM [inhibitor, partial curve, poor fit]
